Test results: PubChem BioAssay (NCATS)
Inconclusive means that the source gave no clear call. Such entries were picked first, then a sample of the others. For some assays here: No potency is given beside an inconclusive call; the fits are too rough. For some assays here: A note “side channel” means that the fit belongs to a control or component signal, not to the main read-out. Active and inactive are the calls of the source. Unless noted, the call rests on the fitted dose curve.

Key:
[1] = target: Estrogen receptor (Homo sapiens) (UniProt P03372); assay: qHTS assay for small molecule antagonists of estrogen receptor alpha signaling (AID 588513; active means well fitted curve in the direction sought with a large enough effect in the signal ratio, with a control signal flat, not every such curve was filed as active; inconclusive means small, poorly fitted or top-dose-only effect, or effect the other way, or a change in a side signal; inactive means no such curve, though single readings can be large or run the other way; the % refers to the signal ratio; further: potency means the concentration at half of the fitted maximal effect; on activity, negative = inhibition: on the % scale 0 is the no-effect control and ±100 the full control effect); details: ER-alpha-UAS-bla HEK293, beta-lactamase ratio, antagonist mode; activity, negative = inhibition: at 76.9 µM (top of the series) unless noted
UniProt P03372, sequence (P03372 whole entry, looked up): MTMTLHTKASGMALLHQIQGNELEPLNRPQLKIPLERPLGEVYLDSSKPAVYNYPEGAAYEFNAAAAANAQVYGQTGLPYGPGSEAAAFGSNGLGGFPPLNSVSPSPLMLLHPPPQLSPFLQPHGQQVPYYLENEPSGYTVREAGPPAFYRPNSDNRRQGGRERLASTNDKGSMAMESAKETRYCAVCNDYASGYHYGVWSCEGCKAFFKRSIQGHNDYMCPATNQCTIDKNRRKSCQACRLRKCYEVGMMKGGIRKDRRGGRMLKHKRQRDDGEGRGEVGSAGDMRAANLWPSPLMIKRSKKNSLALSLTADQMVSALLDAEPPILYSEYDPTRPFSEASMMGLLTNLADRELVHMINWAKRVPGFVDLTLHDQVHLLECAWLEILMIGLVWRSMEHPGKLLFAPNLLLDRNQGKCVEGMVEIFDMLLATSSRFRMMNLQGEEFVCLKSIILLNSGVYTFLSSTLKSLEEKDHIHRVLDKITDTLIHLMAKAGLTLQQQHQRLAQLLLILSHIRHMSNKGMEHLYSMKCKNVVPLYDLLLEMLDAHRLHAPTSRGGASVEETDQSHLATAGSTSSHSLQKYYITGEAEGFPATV
Procedure, shortened: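 ER-alpha-UAS-bla GripTite HEK 293 cells in medium with 2% charcoal/dextran-treated FBS were preincubated 4 h at 37 C, dosed with compound (1:2 titration), stimulated with 0.5nM 17-beta-estradiol for 18 h, then read by CCF4 beta-lactamase fluorescence.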

[2] = target: Bile acid receptor (Homo sapiens) (UniProt Q96RI1); assay: qHTS assay for small molecule antagonists of farnesoid X receptor signaling (AID 588526); details: HEK293T FXR-UAS-bla, beta-lactamase ratio, antagonist mode; activity change, negative = inhibition: at 76.7 µM (top of the series); further: potency means the concentration at half of the fitted maximal effect
UniProt Q96RI1, sequence (Q96RI1 whole entry, looked up): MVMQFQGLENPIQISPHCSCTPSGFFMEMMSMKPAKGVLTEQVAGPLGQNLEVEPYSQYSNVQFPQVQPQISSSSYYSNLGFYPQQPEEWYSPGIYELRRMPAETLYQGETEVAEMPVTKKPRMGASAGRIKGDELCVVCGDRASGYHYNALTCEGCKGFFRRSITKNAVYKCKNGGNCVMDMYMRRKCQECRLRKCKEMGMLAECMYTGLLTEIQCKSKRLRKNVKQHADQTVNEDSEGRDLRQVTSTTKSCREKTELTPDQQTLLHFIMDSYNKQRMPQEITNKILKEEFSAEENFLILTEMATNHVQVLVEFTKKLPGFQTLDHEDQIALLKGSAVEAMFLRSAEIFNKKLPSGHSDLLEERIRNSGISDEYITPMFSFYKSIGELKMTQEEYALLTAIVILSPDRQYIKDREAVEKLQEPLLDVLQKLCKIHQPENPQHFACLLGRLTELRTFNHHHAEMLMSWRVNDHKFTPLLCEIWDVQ
Procedure, shortened: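 Concentration-response titrations were fitted to the Hill equation for half-maximal inhibition and maximal response, with data normalised to 50 uM chenodeoxycholic acid and DMSO control wells. Cells: FXR-UAS-bla HEK293T, dialyzed FBS.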

[3] = target: Glucocorticoid receptor (Homo sapiens) (UniProt P04150); assay: qHTS assay for small molecule antagonists of glucocorticoid receptor signaling (AID 588533; active means well fitted inhibition curve with a large enough effect in the signal ratio, with a control signal flat, not every such curve was filed as active; inconclusive means small, poorly fitted or top-dose-only effect, or effect the other way, or a change in a side signal; the % refers to the signal ratio;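 further: cells stimulated with 2 nM dexamethasone as agonist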; further: potency means the concentration at half of the fitted maximal effect; on activity change, negative = inhibition: on the % scale 0 is the no-effect control and ±100 the full control effect); details: HeLa MMTV-bla, GRE beta-lactamase ratio, antagonist mode, 18 h; activity change, negative = inhibition: at 76.8 µM (top of the series) unless noted
[4] = target: Peroxisome proliferator-activated receptor delta (Homo sapiens) (UniProt Q03181); assay: qHTS assay for small molecule agonists of peroxisome proliferator-activated receptor delta signaling (AID 588534); details: HEK293T PPARdelta-UAS-bla, beta-lactamase ratio, 18 h; activation: at 76.7 µM (top of the series); further: potency means the concentration at half of the fitted maximal effect;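 on activation: 0% = DMSO basal wells and 100% = positive control agonist at 10 µM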
UniProt Q03181, sequence (Q03181 whole entry, looked up): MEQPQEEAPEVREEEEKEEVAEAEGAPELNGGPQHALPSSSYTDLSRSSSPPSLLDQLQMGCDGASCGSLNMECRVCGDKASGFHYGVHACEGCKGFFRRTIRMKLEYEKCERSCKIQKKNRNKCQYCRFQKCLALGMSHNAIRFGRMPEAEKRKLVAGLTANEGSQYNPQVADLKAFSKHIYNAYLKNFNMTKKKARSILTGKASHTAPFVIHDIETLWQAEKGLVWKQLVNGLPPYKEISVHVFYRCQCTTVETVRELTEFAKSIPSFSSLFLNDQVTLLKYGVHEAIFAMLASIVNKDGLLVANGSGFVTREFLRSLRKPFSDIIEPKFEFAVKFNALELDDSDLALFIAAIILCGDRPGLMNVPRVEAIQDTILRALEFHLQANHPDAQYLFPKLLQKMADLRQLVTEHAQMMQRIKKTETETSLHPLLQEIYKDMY
Procedure, shortened: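 Cell-based beta-lactamase reporter assay run in agonist mode: cells seeded and incubated 5 hrs at 37 C, compounds added and incubated 18 hrs at 37 C. CCF4 dye fluorescence read after 2 hrs at RT; EC50 and efficacy from Hill fits.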

[5] = target: Peroxisome proliferator-activated receptor delta (Homo sapiens) (UniProt Q03181); assay: qHTS assay for small molecule antagonists of peroxisome proliferator-activated receptor delta signaling (AID 588535; active means well fitted inhibition curve with a large enough effect in the signal ratio, with a control signal flat, not every such curve was filed as active; inconclusive means small, poorly fitted or top-dose-only effect, or effect the other way, or a change in a side signal; inactive means no such curve, though single readings can be large or run the other way; the % refers to the signal ratio; further: potency means the concentration at half of the fitted maximal effect); details: HEK293T PPARd-UAS-bla, beta-lactamase FRET ratio, 18 h; activity change, negative = inhibition: at 76.7 µM (top of the series) unless noted
Procedure, shortened: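 GeneBLAzer PPAR-delta-UAS-bla HEK293T cells in medium with 2% charcoal/dextran FBS were preincubated 5 hrs at 37 C, then given compounds, incubated 18 hrs at 37 C, and read by CCF4 beta-lactamase fluorescence; IC50 from Hill fits.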

[6] = target: Vitamin D3 receptor (Homo sapiens) (UniProt P11473); assay: qHTS assay for small molecule antagonists of vitamin D receptor signaling (AID 588541); details: HEK293T VDR-UAS-bla, beta-lactamase ratio, antagonist mode; activity change, negative = inhibition: at 76.7 µM (top of the series); further: potency means the concentration at half of the fitted maximal effect
[7] = target: Retinoic acid receptor RXR-alpha (Homo sapiens) (UniProt P19793); assay: qHTS assay for small molecule agonists of retinoid X receptor alpha signaling (AID 588544); details: HEK293T RXRa-UAS-bla, beta-lactamase reporter, 18 h; activation: at 76.7 µM (top of the series) unless noted; further: potency means the concentration at half of the fitted maximal effect;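 on activation: 0% = DMSO basal wells and 100% = reference agonist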
UniProt P19793, sequence (P19793 whole entry, looked up): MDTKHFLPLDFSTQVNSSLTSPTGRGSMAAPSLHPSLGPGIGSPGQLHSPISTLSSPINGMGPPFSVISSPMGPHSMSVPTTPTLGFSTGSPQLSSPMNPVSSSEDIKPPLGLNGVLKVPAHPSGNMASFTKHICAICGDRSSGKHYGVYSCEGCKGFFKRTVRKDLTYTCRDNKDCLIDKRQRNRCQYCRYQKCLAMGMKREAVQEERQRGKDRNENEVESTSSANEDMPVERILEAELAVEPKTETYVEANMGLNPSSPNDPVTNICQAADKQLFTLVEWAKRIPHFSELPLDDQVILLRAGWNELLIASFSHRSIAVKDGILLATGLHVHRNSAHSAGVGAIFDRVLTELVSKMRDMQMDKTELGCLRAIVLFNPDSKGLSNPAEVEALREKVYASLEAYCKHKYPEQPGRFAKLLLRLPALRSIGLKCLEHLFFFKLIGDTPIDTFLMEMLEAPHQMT

[8] = target: Thyroid hormone receptor beta (Homo sapiens) (UniProt P10828); assay: qHTS assay for small molecule agonists of thyroid hormone receptor beta signaling (AID 588545); details: TR-UAS-bla GripTite HEK 293, beta-lactamase ratio, agonist mode, 18 h; activation: at 76.7 µM, percent of T3 response, DMSO as zero; further: potency means the concentration at half of the fitted maximal effect
UniProt P10828, sequence (P10828 whole entry, looked up): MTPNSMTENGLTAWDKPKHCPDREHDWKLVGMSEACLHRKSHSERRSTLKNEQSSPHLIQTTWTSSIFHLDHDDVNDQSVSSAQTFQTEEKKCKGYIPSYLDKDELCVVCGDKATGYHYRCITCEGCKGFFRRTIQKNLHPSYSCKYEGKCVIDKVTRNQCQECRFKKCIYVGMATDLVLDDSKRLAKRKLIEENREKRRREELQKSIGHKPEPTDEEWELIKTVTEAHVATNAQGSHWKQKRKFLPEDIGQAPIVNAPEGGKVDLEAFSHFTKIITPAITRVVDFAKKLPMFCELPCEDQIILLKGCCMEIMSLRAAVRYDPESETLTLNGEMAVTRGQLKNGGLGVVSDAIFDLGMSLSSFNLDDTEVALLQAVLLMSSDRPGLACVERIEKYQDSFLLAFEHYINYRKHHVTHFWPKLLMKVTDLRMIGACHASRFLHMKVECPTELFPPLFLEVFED
Procedure, shortened: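 Beta-lactamase reporter activity under TR response element control is measured in HEK 293 cells after 18 hrs compound exposure. Signal is ratiometric CCF4 fluorescence, 460/530 nm.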

[9] = target: Retinoic acid receptor RXR-alpha (Homo sapiens) (UniProt P19793); assay: qHTS assay for small molecule antagonists of retinoid X receptor alpha signaling (AID 588546; active means well fitted inhibition curve with a large enough effect in the signal ratio, with a control signal flat, not every such curve was filed as active; inconclusive means small, poorly fitted or top-dose-only effect, or effect the other way, or a change in a side signal; inactive means no such curve, though single readings can be large or run the other way; the % refers to the signal ratio;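 further: cells stimulated with 9-cis-retinoic acid as agonist; on the % scale 0 is the no-effect control and ±100 the full control effect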); details: HEK293T RXRa-UAS-bla, beta-lactamase ratio, antagonist mode
Procedure, shortened: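 Beta-lactamase reporter inhibition, read as CCF4 fluorescence ratio (ex 405, em 460/530 nm) after 2 h at RT. HEK293T UAS-bla cells, 2500/well, were stimulated with 9-cis-RA at 500 or 100 nM final alongside test compound for 18 h at 37 C.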

[10] = target: Thyroid hormone receptor beta (Homo sapiens) (UniProt P10828); assay: qHTS assay for small molecule antagonists of thyroid hormone receptor beta signaling (AID 588547; active means well fitted inhibition curve with a large enough effect in the signal ratio, with a control signal flat, not every such curve was filed as active; inconclusive means small, poorly fitted or top-dose-only effect, or effect the other way, or a change in a side signal; the % refers to the signal ratio; further: potency means the concentration at half of the fitted maximal effect); details: TR-UAS-bla HEK293, beta-lactamase ratio, antagonist mode, 18 h
Procedure, shortened: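 TR-UAS-bla GripTite HEK293 cells in 2% charcoal/dextran FBS medium were preincubated 4 h at 37 C, given compound (0.59 nM to 92 uM) plus 0.4 nM T3 (final) for 18 h, then CCF4 for 2 h at RT; Hill fit gave IC50.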

[11] = qHTS assay for small molecule agonists of the antioxidant response element (ARE) signaling pathway (AID 651741; active means well fitted activation curve with a large enough effect in the signal ratio; inconclusive means small, poorly fitted or top-dose-only effect, or effect the other way, or a change in a side signal; the % refers to the signal ratio; further: potency means the concentration at half of the fitted maximal effect); details: HepG2 ARE-bla reporter, beta-lactamase FRET ratio, 16 h; activation: at 96 µM (top of the series) unless noted
Procedure, shortened: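 ARE-bla HepG2 cells (beta-lactamase reporter under ARE control) were plated at 2,000 cells/well, preincubated 5 h at 37 C/5% CO2, then treated with DMSO-dissolved compounds for 16 h at 37 C; LiveBLAzer B/G FRET substrate added, fluorescence read after 2 h at room temperature.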

[12] = qHTS assay for small molecule activators of the p53 signaling pathway (AID 651743; active means well fitted activation curve with a large enough effect in the signal ratio, not every such curve was filed as active; inconclusive means small, poorly fitted or top-dose-only effect, or a change in a side signal; the % refers to the signal ratio; further: potency means the concentration at half of the fitted maximal effect); details: HCT-116 p53RE-bla, beta-lactamase FRET ratio, 16 h; activation: hits give high values
Procedure, shortened: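 p53RE-bla HCT-116 cells with a stably integrated beta-lactamase reporter under p53 response elements were plated, rested 5 hours at 37 C/5% CO2, then exposed to compounds in DMSO for 16 hours at 37 C. LiveBLAzer B/G FRET substrate was read after 2 hours at room temperature.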

[13] = qHTS assay for small molecule activators of the nuclear factor-kappa B (NF-kB) signaling pathway (AID 651749; active means well fitted activation curve with a large enough effect in the signal ratio; inconclusive means small, poorly fitted or top-dose-only effect, or a change in a side signal; the % refers to the signal ratio; further: % of control where 0% means no effect); details: NF-kB-bla ME-180 cells, beta-lactamase FRET ratio, 16 h; activation: hits give high values
Procedure, shortened: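 ME-180 cells stably carrying a beta-lactamase reporter under an NF-kB response element were exposed to compound or DMSO vehicle for 16 hr at 37C, 5% CO2. Pathway activation was read by FRET, since reporter expression disrupts FRET.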

[14] = qHTS assay for small molecule agonists of the antioxidant response element (ARE) signaling pathway measured by Nrf2-dependant transcriptional activity (AID 720636; active means well fitted curve in the direction sought with a large enough effect in the repeat runs; inconclusive means weak or mixed curves; inactive means no such curve, though single readings can be large; an effect the other way counts as inactive or inconclusive; further: potency means the concentration at half of the fitted maximal effect)
Procedure, shortened: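 Cells: ARE-luc HepG2 with Nrf2-responsive luciferase. Medium contained 1% dialyzed FBS. Compound exposure lasted 16 hr at 37 C and 5% CO2, followed by ONE-Glo luciferase detection.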

[15] = qHTS assay for small molecule agonists of the antioxidant response element (ARE) signaling pathway measured by Nrf2-dependant transcriptional activity - cell viability counter screen (AID 720653; active means well fitted curve in the direction sought with a large enough effect in the repeat runs; inconclusive means weak or mixed curves; inactive means no such curve, though single readings can be large; an effect the other way counts as inactive or inconclusive; further: potency means the concentration at half of the fitted maximal effect); details: ARE-bla HepG2 viability, CellTiter-Glo ATP luminescence, 16 h; max response: hits give low values
Procedure, shortened: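 ARE-bla HepG2 cells (2,000/well) rested 5 hrs at 37C/5% CO2, then exposed to compounds in DMSO for 16 hrs. Viability was read in the same wells as intracellular ATP by luminescence, 30 min at room temperature after reagent addition.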

[16] = qHTS assay for cell viability of HEK293 cells (AID 743288; active means well fitted curve in the direction sought with a large enough effect; inconclusive means small, poorly fitted or top-dose-only effect, or another doubt; inactive means no such curve, though single readings can be large; an effect the other way counts as inactive or inconclusive; further: potency means the concentration at half of the fitted maximal effect; nearly all actives have a fitted effect of over 50% in size); details: ATP luminescence (CellTiter-Glo), 18 h; max response: hits give low values
Procedure, shortened: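 Parental HEK293 cells were seeded at 2,000 cells/well, rested at least 5 h at 37 C, then exposed to compounds in DMSO for 18 h at 37 C. Viability was read as ATP-dependent luciferase luminescence after 30 min at room temperature.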

[17] = qHTS assay for cell viability of the p53RE-bla HCT-116 cell line (AID 743292; active means well fitted curve in the direction sought with a large enough effect; inconclusive means small, poorly fitted or top-dose-only effect, or another doubt; inactive means no such curve, though single readings can be large; an effect the other way counts as inactive or inconclusive; further: potency means the concentration at half of the fitted maximal effect; nearly all actives have a fitted effect of over 55% in size)
Procedure, shortened: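 HCT-116 p53RE-bla cells seeded 4,000/well; 5 h at 37 C; compound (DMSO) added; 16 h at 37 C; CellTiter-Glo added, 30 min RT; luminescence read.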

[18] = target: Androgen receptor (Homo sapiens) (UniProt P10275); assay: qHTS assay for small molecule agonists of androgen receptor signaling (AID 588515; active means well fitted curve in the direction sought with a large enough effect in the signal ratio, with a control signal flat; inconclusive means small, poorly fitted or top-dose-only effect, or effect the other way, or a change in a side signal; inactive means no such curve, though single readings can be large or run the other way; the % refers to the signal ratio; further: on the % scale 0 is the no-effect control and ±100 the full control effect); details: AR-UAS-bla HEK293, beta-lactamase ratio, agonist 16 h; activation: hits give high values
UniProt P10275, sequence (P10275 whole entry, looked up): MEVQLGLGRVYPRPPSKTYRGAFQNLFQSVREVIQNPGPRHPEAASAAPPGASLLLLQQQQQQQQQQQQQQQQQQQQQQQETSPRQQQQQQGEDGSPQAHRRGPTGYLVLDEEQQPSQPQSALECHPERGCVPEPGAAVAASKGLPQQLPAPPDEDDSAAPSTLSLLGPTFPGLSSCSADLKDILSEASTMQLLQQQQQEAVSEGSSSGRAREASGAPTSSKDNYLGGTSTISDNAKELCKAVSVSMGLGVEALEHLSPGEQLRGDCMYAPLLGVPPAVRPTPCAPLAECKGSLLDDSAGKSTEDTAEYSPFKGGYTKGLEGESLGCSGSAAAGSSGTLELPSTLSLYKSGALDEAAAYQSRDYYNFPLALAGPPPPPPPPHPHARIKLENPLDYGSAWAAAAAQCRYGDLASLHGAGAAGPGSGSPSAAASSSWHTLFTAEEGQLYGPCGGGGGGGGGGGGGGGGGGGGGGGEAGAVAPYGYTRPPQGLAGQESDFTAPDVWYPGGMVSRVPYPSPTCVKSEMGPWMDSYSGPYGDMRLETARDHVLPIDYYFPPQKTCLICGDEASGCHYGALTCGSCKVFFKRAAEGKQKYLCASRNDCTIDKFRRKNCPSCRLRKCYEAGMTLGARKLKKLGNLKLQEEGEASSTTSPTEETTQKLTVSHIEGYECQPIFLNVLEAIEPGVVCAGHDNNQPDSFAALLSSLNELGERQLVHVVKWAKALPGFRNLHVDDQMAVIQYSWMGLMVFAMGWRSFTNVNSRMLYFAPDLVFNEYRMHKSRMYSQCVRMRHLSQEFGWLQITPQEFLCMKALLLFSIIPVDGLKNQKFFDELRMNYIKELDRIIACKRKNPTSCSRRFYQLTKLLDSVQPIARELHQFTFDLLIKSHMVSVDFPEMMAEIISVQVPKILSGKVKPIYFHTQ
Procedure, shortened: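 EC50 and efficacy came from Hill fits of titrations (up to 92 uM) normalized to 30 nM R1881 as 100% and DMSO as 0%. Compound exposure was 16 h at 37 C on AR-UAS-bla HEK293 cells, with a 405/460/530 nm CCF4 fluorescence read.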

[19] = target: Glucocorticoid receptor (Homo sapiens) (UniProt P04150); assay: qHTS assay for small molecule agonists of glucocorticoid receptor signaling (AID 588532; active means well fitted curve in the direction sought with a large enough effect in the signal ratio, with a control signal flat; inconclusive means small, poorly fitted or top-dose-only effect, or a change in a side signal; inactive means no such curve, though single readings can be large or run the other way; the % refers to the signal ratio; further: potency means the concentration at half of the fitted maximal effect); details: HeLa MMTV-bla, beta-lactamase ratio, agonist, 18 h; activation: hits give high values, percent of dexamethasone control, DMSO zero
Procedure, shortened: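 Stimulation of a glucocorticoid response element-driven beta-lactamase gene was measured in HeLa cells. Responses were scaled between DMSO basal and 0.1 uM dexamethasone, then fitted for half-maximal stimulation.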

[20] = target: Peroxisome proliferator-activated receptor gamma (Homo sapiens) (UniProt P37231); assay: qHTS assay for small molecule antagonists of peroxisome proliferator-activated receptor gamma signaling (AID 588537; active means well fitted inhibition curve with a large enough effect in the signal ratio, with a control signal flat, not every such curve was filed as active; inconclusive means small, poorly fitted or top-dose-only effect, or effect the other way, or a change in a side signal; the % refers to the signal ratio;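 further: reporter cells co-stimulated with 50 nM rosiglitazone agonist during compound treatment; % of control where 0% means no effect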); details: HEK293 PPARg-UAS-bla, beta-lactamase ratio, antagonist mode; activity, negative = inhibition: at 76.8 µM (top of the series)
Procedure, shortened: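 PPAR-gamma-UAS-bla HEK293 cells (3000/well, 1% charcoal/dextran-stripped FBS) were preincubated 6-6.5 h at 37 C, given titrated compounds, then stimulated with 50 nM rosiglitazone for 16 h. Beta-lactamase activity was read with CCF4 dye; IC50 came from Hill fits.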
Tags describe the fitted curve by direction and shape or compound fluorescence and quenching.

SMILES: CCC[CH2][Sn]([Cl])([CH2]CCC)[CH2]CCC
- Potency [1]: inconclusive [side channel, rising, partial curve, poor fit]
- Potency [2]: active: 35.5 µM
- Potency [3]: inconclusive [cytotoxic, single point]
- Potency [4]: inconclusive [side channel, rising, full curve, poor fit]
- Potency [5]: inconclusive [falling, partial curve, poor fit]
- Potency [6]: inconclusive [inhibitor, single point]
- Potency [7]: active: 0.398 µM
- Potency [8]: inconclusive [side channel, falling, full curve, poor fit]
- max response [9]: inconclusive: -61.5%
- Potency [10]: inconclusive [inhibitor, partial curve]
- Potency [11]: active: 24.3 µM
- Potency [12]: inconclusive [side channel, falling, single point]
- activation [13]: inconclusive: -3.9%
- Potency [14]: inconclusive [activator, partial curve]
- Potency [15]: inconclusive [cytotoxic, full curve, poor fit]
- Potency [16]: active: 50.1 µM
- Potency [17]: inconclusive [cytotoxic, single point]

SMILES: CCOP(=O)(OCC)SCSP(=S)(OCC)OCC
- Potency [1]: inconclusive [inhibitor, single point]
- activation [18]: inactive: -6.59%
- activation [7]: inconclusive: -28.6%
- Potency [11]: inconclusive [side channel, falling, partial curve, poor fit]

SMILES: COP(=O)(OC)SCn1c(=O)oc2cc(Cl)cnc21
- activity, negative = inhibition [1]: inconclusive: -65.7%
- Potency [19]: inconclusive [side channel, falling, full curve, poor fit]
- Potency [3]: inactive
- Potency [4]: inactive
- activity change, negative = inhibition [5]: inconclusive: -43.9%
- activity, negative = inhibition [20]: inconclusive: -33.3%
- Potency [6]: inconclusive [inhibitor, single point]
- Potency [7]: inconclusive [side channel, rising, partial curve, poor fit]
- Potency [8]: inconclusive [side channel, falling, full curve, poor fit]
- max response [9]: inconclusive: -66%
- Potency [10]: inconclusive [side channel, rising, single point]
